“And” between values parts separate entries of the source, which are not always exact repeats. Equal values may be shown once.
What was measured:
H + OC antiporter [1] = test: Concentration-dependent uptake into hCMEC/D3 cells (transport kinetics); conditions: for Km / Vmax / KM: 2 min uptake, after subtraction of linear passive-diffusion component; for Km / KM: 0.1–1000 µM; for Intrinsic Clearance: ratio of Vmax over KM
H + OC antiporter [2] = test: Trans-stimulation (antiport) with diphenhydramine as probe substrate in hCMEC/D3 cells; format: cell-based, human; conditions: intracellular diphenhydramine after 2 min incubation with substrate over without substrate
H + OC antiporter [3] = test: Trans-stimulation (antiport) with MDAI as probe substrate in hCMEC/D3 cells; format: cell-based, human; conditions: intracellular MDAI after 2 min incubation with substrate over without substrate
H + OC antiporter [4] = test: Cis-inhibition of substrate uptake into hCMEC/D3 cells by diphenhydramine, imipramine or memantine

## CN[C@@H](C)[C@H](O)c1ccccc1 [Ephedrine]
H + OC antiporter [1]
  Km: 33.5 µM

## COC(=O)C(c1ccccc1)C1CCCCN1 (centres unmarked) [Methylphenidate]
H + OC antiporter [1]
  Km: 78.9 µM
  Vmax: 1142 pmol × mg Protein^−1 × min^−1

## CN(C)CCC[C@@]1(c2ccc(F)cc2)OCc2cc(C#N)ccc21 [Escitalopram]
H + OC antiporter [1]
  Km: 47 µM
  Vmax: 2356 pmol × mg Protein^−1 × min^−1

## CC12CC3CC(C)(C1)CC(N)(C3)C2 [Memantine]
H + OC antiporter [1]
  Km: 28.7 µM
  Vmax: 1002 pmol × mg Protein^−1 × min^−1
H + OC antiporter [1]; listed as memantine
  Km: 29 µM and < 30 µM

## COCCc1ccc(OCC(O)CNC(C)C)cc1 (centres unmarked) [Metoprolol]
H + OC antiporter [1]
  KM: Only linear component of uptake observed
  Vmax: Only linear component of uptake observed
  Intrinsic Clearance: Only linear component of uptake observed

## CC(C)(C)NCC(O)c1cc(Cl)c(N)c(Cl)c1 (centres unmarked) [Clenbuterol]
H + OC antiporter [1]
  Km: 51.1 µM
  Vmax: 1412 pmol × mg Protein^−1 × min^−1

## CNC1(c2ccccc2Cl)CCCCC1=O (centres unmarked) [Ketamine]
H + OC antiporter [2]
  DPH Antiport Ratio: 0.36

## CN(C)CCC=C1c2ccccc2COc2ccccc21 [Doxepin]
H + OC antiporter [1]
  Km: 36.3 µM
  Vmax: 2661 pmol × mg Protein^−1 × min^−1

## CCOC(=O)C1(c2ccccc2)CCC=CC1N(C)C (centres unmarked) [Tilidine]
H + OC antiporter [2]
  DPH Antiport Ratio: 0.54
H + OC antiporter [3]
  MDAI Antiport Ratio: 0.80

## NC(=O)c1cnccn1 [Pyrazinamide]
H + OC antiporter [1]
  KM: Only linear component of uptake observed
  Vmax: Only linear component of uptake observed
  Intrinsic Clearance: Only linear component of uptake observed
H + OC antiporter [4]
  inhibition of uptake by the three inhibitors (diphenhydramine, imipramine, memantine): not inhibited by the three inhibitors

## COc1ccc2c3c1O[C@H]1C(=O)CC[C@@]4(O)[C@@H](C2)N(C)CC[C@]314 [Oxycodone]
H + OC antiporter [1]
  Km: 71.4 µM
  Vmax: 1900 pmol × mg Protein^−1 × min^−1

## Nc1nc2c(ncn2COCCO)c(=O)[nH]1 [Acyclovir]
H + OC antiporter [2]
  DPH Antiport Ratio: 0.87
H + OC antiporter [3]
  MDAI Antiport Ratio: 0.94

## CN(C)CCC=C1c2ccccc2CCc2ccccc21 [Amitriptyline]
H + OC antiporter [1]
  Km: 286 µM
  Vmax: 8752 pmol × mg Protein^−1 × min^−1

## CNCCC(Oc1ccc(C(F)(F)F)cc1)c1ccccc1 (centres unmarked) [Fluoxetine]
H + OC antiporter [1]
  Km: 80.2 µM
  Vmax: 5070 pmol × mg Protein^−1 × min^−1

## COc1ccccc1N1CCN(CCCNc2cc(=O)n(C)c(=O)n2C)CC1 [Urapidil]
H + OC antiporter [1]
  Km: 82.5 µM
  Vmax: 1305 pmol × mg Protein^−1 × min^−1

## COc1cc(OC)c(C(=O)CCCN2CCCC2)c(OC)c1 [Buflomedil]
H + OC antiporter [2]
  DPH Antiport Ratio: 0.53
H + OC antiporter [3]
  MDAI Antiport Ratio: 0.22

## CCN(CC)CCNC(=O)c1cc(Cl)c(N)cc1OC [Metoclopramide]
H + OC antiporter [1]
  Km: 118 µM
  Vmax: 1671 pmol × mg Protein^−1 × min^−1

## Cn1c(=O)c2[nH]cnc2n(C)c1=O [Theophyllin]
H + OC antiporter [2]
  DPH Antiport Ratio: 0.90
H + OC antiporter [3]
  MDAI Antiport Ratio: 0.86

## CN(C)CCCC1(c2ccc(F)cc2)OCc2cc(C#N)ccc21 (centres unmarked) [Citalopram]
H + OC antiporter [1]
  Km: 12.9 µM
  Vmax: 838 pmol × mg Protein^−1 × min^−1
H + OC antiporter [1]; listed as citalopram
  Km: < 30 µM

## COc1ccc2c3c1O[C@H]1[C@@H](O)CC[C@H]4[C@@H](C2)N(C)CC[C@@]341 [Dihydrocodeine]
H + OC antiporter [2]
  DPH Antiport Ratio: 0.52
H + OC antiporter [3]
  MDAI Antiport Ratio: 0.87

## CCC1(c2cccc(O)c2)CCCCN(C)C1 (centres unmarked) [Meptazinol]
H + OC antiporter [1]
  Km: 1460 µM
  Vmax: 15,759 pmol × mg Protein^−1 × min^−1

## CN(C)CCc1c[nH]c2ccc(C[C@H]3COC(=O)N3)cc12 [Zolmitriptan]
H + OC antiporter [2]
  DPH Antiport Ratio: 1.03
H + OC antiporter [3]
  MDAI Antiport Ratio: 1.45

Source: PMC9369162, “Substrates of the Human Brain Proton-Organic Cation Antiporter and Comparison with Organic Cation Transporter 1 Activities” (International Journal of Molecular Sciences, 2022)
